Experimental data published in the supplement of paper PMC3334620.
The full ranking holds about 33,000 sequences; the median of “E-score (-0.5 to 0.5)” is about -0.04, and the highest 2% start at about 0.36. The list shows a part of the results.

What follows are sequences tested against T1, Hmlalpha2 (UniProt P0CY09) (assay: PBM E-score (8-mer binding enrichment) (E-score (-0.5 to 0.5)); higher = stronger / more preferred TF binding; most listed sequences are background and not binding sites). Conditions: protein concentration: 200 nM; construct: GST-full length.
T1 sequence: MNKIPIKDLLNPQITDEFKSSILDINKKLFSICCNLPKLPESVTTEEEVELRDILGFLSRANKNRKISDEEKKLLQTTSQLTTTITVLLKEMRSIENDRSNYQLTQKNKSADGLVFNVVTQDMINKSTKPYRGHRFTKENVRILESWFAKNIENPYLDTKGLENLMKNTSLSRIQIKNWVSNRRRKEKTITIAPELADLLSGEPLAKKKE
Procedure: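 Universal 'all 10-mer' protein binding microarrays (Agilent AMADID 015681) probed with GST-tagged S. cerevisiae TFs (full-length or DBD) made by in vitro transcription/translation (PURExpress), about 100-200 nM. Bound TF was detected with fluorescent anti-GST. Each ungapped 8-mer (which stands for itself and its reverse complement) is scored by the PBM enrichment score (E-score), a modified Wilcoxon-Mann-Whitney statistic from -0.5 to +0.5, computed with the Universal PBM Analysis Suite. Scale: above 0.35 generally sequence-specific binding.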

| Sequence | PBM E-score |
| --- | --- |
| GGTGGCAC | -0.346 |
| ATAAGGAG | -0.0461 |
| CTCCTGTC | -0.0444 |
| GCCGTTAC | -0.0446 |
| TCGCGAGA | -0.185 |
| AGCTACGG | -0.0359 |
| CCACCCAA | -0.147 |
| AATAACGG | -0.0296 |
| GACGATGC | -0.0881 |
| GCAACACC | -0.0115 |
| ACGCGCCA | 0.237 |
| AGTCAAGC | -0.258 |
| CGATGGTA | -0.0712 |
| ATTTTTAA | 0.237 |
| CAAAGGAC | -0.159 |
| CTATACAC | 0.213 |
| AGAGGACG | 0.0581 |
| CTACTTGC | 0.0575 |
| CCTGCCAA | -0.0799 |
| TATCTCCA | -0.0977 |
| AGTGCTAG | -0.128 |
| ACTACCCC | -0.316 |
| ACGATACA | 0.226 |
| AATCTGTC | -0.0376 |
| GTGAACAA | 0.276 |

| Sequence | PBM E-score |
| --- | --- |
| AAAGACGC | -0.0524 |
| ACGCTTGC | -0.0163 |
| AAGTCCTA | -0.1 |
| ACCCCGAA | -0.00187 |
| AAACAGGG | -0.125 |
| AACTAGCT | 0.0481 |
| ATGCGTTC | 0.122 |
| ATCGGAGA | -0.18 |
| GAACGGCC | -0.213 |
| TGTAAAAA | 0.444 |
| AACGCTGA | 0.016 |
| CAGGATGA | -0.109 |
| CAGCGGCG | 0.0698 |
| CCTATCAA | 0.0128 |
| TACTTAAA | -0.0189 |
| CGCAGGAA | -0.153 |
| CCTAGAAA | -0.176 |
| AGCAAAAG | -0.0333 |
| AAGTGTAT | 0.194 |
| CTCGATAC | 0.153 |
| CGCCGCAA | -0.0429 |
| CGATTGCC | -0.164 |
| AGTGCACG | -0.0358 |
| ATCGCGTC | 0.216 |
| CAATATGC | 0.0605 |

| Sequence | PBM E-score |
| --- | --- |
| AGGTTTTA | -0.0178 |
| CGCTCCTA | -0.0984 |
| ACTTGACT | 0.053 |
| ACCAGTTG | -0.0443 |
| CTAGTCTA | -0.24 |
| TCCCTGAA | -0.0392 |
| AACTCTAT | -0.0589 |
| AAATTCGT | 0.15 |
| ACTACTAA | 0.0347 |
| CCCGGTAA | 0.0478 |
| AATCTTTA | 0.129 |
| AAAAGCTC | -0.151 |
| CTATAGAG | -0.106 |
| CCTTGGTC | -0.217 |
| CGCCACGC | -0.179 |
| AACCAGGA | 0.0791 |
| CTACCATA | -0.113 |
| CCTAGACC | -0.202 |
| GTGACCAC | -0.348 |
| TAGCAAAA | 0.102 |
| CCCGTGGA | -0.176 |
| GAGGAACA | 0.0703 |
| CCCCCCAA | -0.324 |
| CCGCCGTA | -0.238 |
| GCGCCTAC | 0.0758 |

| Sequence | PBM E-score |
| --- | --- |
| CTGTGACC | -0.274 |
| CACCAAAC | 0.115 |
| ACACGCAT | 0.388 |
| ATGCGCTG | 0.0545 |
| ATTACTTG | 0.34 |
| GATCCTTA | 0.0045 |
| CTGGATCC | -0.25 |
| AGAAGGCG | -0.279 |
| GGGTGGGA | -0.291 |
| AATACGGT | 0.0471 |
| GAACTCTC | -0.159 |
| ACTGGTGG | -0.29 |
| GGGTCGGA | -0.205 |
| GAACCTCA | -0.0734 |
| CGAGTGTC | -0.058 |
| GTGGACAA | -0.0203 |
| CTATTACA | 0.442 |
| AAGGGTCC | -0.247 |
| TAAGCCCA | -0.0753 |
| AACGTCCC | 0.0108 |
| CCAGCTAC | -0.0218 |
| CGATCGCC | -0.0998 |
| CACGCTAC | 0.148 |
| AAAGGAGC | -0.138 |
| GAAGTACA | 0.272 |

| Sequence | PBM E-score |
| --- | --- |
| ACTAGCCA | -0.0414 |
| AAGACTCC | -0.354 |
| CAGCTTTA | -0.0513 |
| AGCGCCTA | 0.0161 |
| CGGGTGTC | -0.0286 |
| GGGTTTCA | 0.0333 |
| GCCGGATA | -0.0927 |
| CGCGCTAC | 0.0867 |
| GGTCCCGA | -0.306 |
| ATAGCCTC | -0.203 |
| AAACTTGG | -0.155 |
| TGTCAACA | 0.331 |
| ACTCGGTG | -0.0952 |
| ATGTAACC | 0.304 |
| CAGACAAC | 0.00285 |
| CTCTTTCC | -0.399 |
| ACACGGAG | 0.315 |
| CCTACTGA | -0.109 |
| TGAGTCCA | -0.147 |
| GAAGCCTC | -0.215 |
| AATGATGT | 0.234 |
| GCCTTACC | -0.214 |
| AACTACAA | 0.242 |
| AGTTCCGG | -0.191 |
| GGTGCGGA | 0.0644 |

| Sequence | PBM E-score |
| --- | --- |
| GCACCGTA | -0.146 |
| CGCACAAA | 0.159 |
| ATTCGGAA | 0.0863 |
| ACGAACCT | -0.0493 |
| CTAGTATA | 0.0873 |
| ATCCAGCG | -0.0893 |
| AGGGTACT | -0.161 |
| ACTCAGAG | -0.0325 |
| TAGACATA | 0.209 |
| AGACTCAT | -0.0539 |
| ATTCGGGG | -0.248 |
| CACCTGAC | -0.0593 |
| ATAAGCTG | 0.0283 |
| CGCGCTTC | -0.0187 |
| CGGCTCCC | -0.214 |
| CAAGTGGC | -0.13 |
| TCTCAAAA | 0.028 |
| GCCAAGAA | 0.00193 |
| GGTTAGGA | -0.263 |
| AACCATAT | -0.0658 |
| CGGAGCGA | -0.0515 |
| GGAGTAAA | 0.242 |
| ATCGCGCC | -0.0319 |
| AACAGCTT | -0.0334 |
| TACCTTGA | 0.0442 |

| Sequence | PBM E-score |
| --- | --- |
| AATTATAA | 0.118 |
| AAAGATGC | -0.0501 |
| TAAGAAGA | 0.0717 |
| ATACCGAT | -0.139 |
| ACCATACT | 0.129 |
| CGACTCCC | -0.237 |
| CCACGCAG | 0.0176 |
| GCGAACCA | -0.0127 |
| ATGAAAGG | -0.051 |
| GAGGCGCA | -0.326 |
| GTATAAAC | 0.246 |
| AAGTGCGC | -0.239 |
| GGAGCCTA | -0.248 |
| CATAAGAA | 0.15 |
| CTAATAGC | -0.0392 |
| AGTATGGG | -0.143 |
| ATGTCAAG | 0.305 |
| AAATAGGC | -0.0645 |
| GAAGACCC | -0.382 |
| TAAATGGA | 0.0536 |
| CCCAAATA | -0.089 |
| ACCGTTGC | -0.236 |
